From the supplement of paper PMC11417369 come the findings set out here.

± gives the standard deviation of the averaged measurements. Some of the results follow.

This test relates to PfAP2-I AP2 domain 3 (GST-tagged). The experiment in a line: gcPBM binding intensity (ln(normalized median fluorescence intensity)); higher = stronger DNA binding. The essentials:
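DNA-binding domains from P. falciparum, fused to GST and produced in E. coli, were put on an Agilent 4 × 180k double-stranded probe array for 1 h in 1× PBS holding 1% milk, 0.2 mg/ml BSA, 0.5% salmon testes DNA and 0.03% Triton X-100. Probes were primer-extended, 36 bp long and drawn from intergenic genomic regions, with negative controls included. After Alexa488 anti-GST antibody detection and a 488 nm scan, binding intensity was set as the highest Masliner-normalised natural-log median intensity across replicate spots of either probe orientation.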
In the case of “AAATTTATATAAAACAGTACAATTAAAAAAAAAATA [XGTACX_site8015]”, the “gcPBM binding intensity (ln)” value came to 7.67 ± 0.5.
To “GAAACGTTTTTGAGTAGTACACACACAATAAGGATG [XGTACX_site6809]” belongs 8.3 ± 0.43; to “ATATAAATATAAACATGTACATATATATATATATAT [XGTACX_site2824]”, 9.36 ± 0.26.
To “ATTTTTTTATAAAATTTTTTATATATTAAATATTAT [CACACA_negctrl_site135]” belongs 7.38 ± 0.6; to “ACGTTTTATTTTTATTGTACTCACATTGAAATGAAT [XGTACX_site6094]”, 8.25 ± 0.37; to “TTTGTAATAACATATGCATGTTCAAAAAATAAAATA [TGCATGCA_site817]”, 7.6 ± 0.65.
For “ATATATTTATACATTTGTACATATACATATTTCTGA [XGTACX_site3982]”, the “gcPBM binding intensity (ln)” value is 7.78 ± 0.57.
To “AAAATTGTGCTTTCACGGACACAAGATCGAAATAGA [XGTACX_site4068]” belongs 8.62 ± 0.16; to “AAAAATATAAACTGCACACACAAAAAAAAAAGAGAA [CACACA_site1367]”, 8.74 ± 0.13; to “ACATTAATATAAAGCACACATATATATAATATATAT [CACACA_site508]”, 9.89 ± 0.47.
“ATTGATTTTTAATATACACACATAAGTACCACAAAA [CACACA_site339]”: the “gcPBM binding intensity (ln)” value is 8.46 ± 0.2.
Under “TATAACATATTTATATATGACATTATCTATTCATTT [CACACA_negctrl_site864]” stands 7.21 ± 0.53.
To “CATGATATATAAATATGTACATATATATATATATAT [XGTACX_site1760]” belongs 9.47 ± 0.49.
Under “TAATAATAATATAAAATACACACCTATTATTTTTAC [CACACA_site4003]” stands 7.74 ± 0.35; under “CAATATTATTATATTTGTACACATGCGTATTTTTTA [XGTACX_site4154]”, 7.74 ± 0.47; under “CCCGTAAATACAAAAAGTACAAAAGTTCATCTTATA [XGTACX_site1154]”, 7.93 ± 0.99.
Turning to “ATATTATGTGATTGTGCACACTGGAGATTTTTTTTA [CACACA_site1453]”, the “gcPBM binding intensity (ln)” value was 10.9 ± 0.17.
With “TTAATATTGTATCCAAGTACACAAATTATTATATTT [XGTACX_site8067]”, the “gcPBM binding intensity (ln)” value amounted to 7.76 ± 0.24.
Under “ATGTAACACATATTTGGTACAGATAGATAAAAGTAT [XGTACX_site8291]” stands 8.14 ± 0.66.
Under “TTTTTAAATAACCTATATATTATTATGAAACATAAA [CACACA_negctrl_site916]” stands 7.45 ± 0.33.
In the case of “GTATAATATATTTATAGTACATAATTATTTATAAAT [XGTACX_site1826]”, the “gcPBM binding intensity (ln)” value worked out at 7.74 ± 0.4.
As to “TATATATATATATTCACACATAAAAATAAAATAAAA [CACACA_site4774]”, the “gcPBM binding intensity (ln)” value was 9.2 ± 0.13.
Under “ATATATATATATGTGTGTACTTATTTATTTATTTGT [XGTACX_site549]” stands 9.56 ± 0.38; under “TAATAAATCCTATATAGTACATATATGCAAGTATGT [XGTACX_site3955]”, 10.3 ± 0.29; under “TTTTCTTAATATTTATGTATATATATAATATGATAT [TGCATGCA_negctrl_site572]”, 7.57 ± 0.52.
To “TTATTTGTTTAATATGCATGCTAAAAGGGTTGATGT [TGCATGCA_site581]” belongs 8.24 ± 0.51; to “ATTTTACATATTTGCACACATATATTTATATACATA [CACACA_site854]”, 10 ± 0.26; to “AATATAAAAATGCACACACACAAAAAAAAAAAAAAA [CACACA_site6546]”, 9.03 ± 0.16.
To “GAGTAAAACAAATATACACACCATAAAGTTATAAAA [CACACA_site5008]” belongs 7.79 ± 0.61; to “AATTTAAATTCATCACGTACATACGTGAATATACAC [XGTACX_site5220]”, 8.05 ± 0.37; to “CATAAAAATGTATCAAGTACACATTTATTTATCCAT [XGTACX_site152]”, 7.7 ± 0.46.
In the case of “TACAGATAAAAGTACACACACACACCGATATATATA [CACACA_site4675]”, the “gcPBM binding intensity (ln)” value amounted to 8.31 ± 0.64.
Under “GTATAACACAAGTGAAGTACAGGGGTAAACATTTAT [XGTACX_site3203]” stands 8.1 ± 0.66; under “TTAAAATAAAGAGCAGTGCGCATATTTTGTTATTAT [GTGCAC_site9753]”, 8.24 ± 0.63; under “ATAAAAAAATATGTAAACATATATATGTATTTATGT [CACACA_negctrl_site1517]”, 7.54 ± 0.5.
“TTTTTTTTTAAAGAAAATAAAAATATGTACTTGACA [CACACA_negctrl_site1113]”: the “gcPBM binding intensity (ln)” value is 7.61 ± 0.31.
To “AAACAATTTTTATTTTGTACATAACAATATATTTAT [XGTACX_site1375]” belongs 7.67 ± 0.35.
To “TTTTTATATTTTATTAGTACTTATTATATATATAAT [XGTACX_site4900]” belongs 7.82 ± 0.52.
To “AAATACATATATACATGTACATAAATATATATATAT [XGTACX_site5367]” belongs 9.08 ± 0.14.
For the sequence “ATAGATATACATATCACACATATATATATATATATA [CACACA_site4985]”, the “gcPBM binding intensity (ln)” value was 9.19 ± 0.65.
To “TAAGGTAGTTCTGTATCACACACATATATATATATA [CACACA_site8693]” belongs 9.46 ± 0.57.
On to “AATCCATTCTATTTTTTACACACGTATGTAAATATT [CACACA_site8860]”, for which the “gcPBM binding intensity (ln)” value came out at 7.9 ± 0.69.
To “TGAGAAAGCGCATATTGTACTATATATTTTAACCAC [XGTACX_site4098]” belongs 8.06 ± 0.52; to “GAAAATAATGTTACATGTACGAATATGTAACTATTG [XGTACX_site6833]”, 7.68 ± 0.5.
In the case of “AATATATATGGACATGCATGGACATAATAATCTATT [TGCATGCA_site838]”, the “gcPBM binding intensity (ln)” value turned out to be 7.59 ± 0.61.
Under “GATATACAATTTAAGTGTACTATAATAAAATATATA [XGTACX_site3013]” stands 7.79 ± 0.071; under “ATAAAAAAATATAAATGTACATATATATATATATAT [XGTACX_site5620]”, 9.52 ± 0.62; under “ATTTATCTATATATATGTACATATTATTTTTGTGGT [XGTACX_site7390]”, 7.92 ± 0.49.
To “TATATTAATTCGTTTTGTACACACATAATGAATAAT [XGTACX_site4618]” belongs 7.79 ± 0.26.
With “ATTAAATAAAATCATGCACACAATATATATTTTAAG [CACACA_site2495]”, the “gcPBM binding intensity (ln)” value is 8.37 ± 0.25.
For ATAAGCATCTTTTGTGTGCACATAACAAAAAAAAAA, the “gcPBM binding intensity (ln)” value was determined as 9.95 ± 0.057.
Under “TTTAAAATATTGTATTGTACGCAATAAAAAATACCA [XGTACX_site182]” stands 8.13 ± 0.21; under “TCTAACATATCTTTAATACACACTTAAAAAAGTACT [CACACA_site652]”, 7.88 ± 0.39; under “TACACCATGATACATACACACAGACATATACTCATT [CACACA_site4708]”, 8.04 ± 0.43.
Under “TCCAAATGTTTGCGTTGTACTCTTTTTTTAAAACTA [XGTACX_site5148]” stands 7.95 ± 0.52; under “ATAACCACATAAAATATAATTATATATATATATATA [CACACA_negctrl_site603]”, 9.36 ± 0.36.
To “CCTGAAATTTTATTATGTACATATTATAAAATGATT [XGTACX_site1434]” belongs 7.75 ± 0.31; to “TGGCACTAAAAAAATAAACACACAGATTTATATAAT [CACACA_site8386]”, 7.62 ± 0.6.
In the case of “ATTCCTCCCATGGAATGTACTCATCAAATAAATAAA [XGTACX_site6543]”, the “gcPBM binding intensity (ln)” value turned out to be 7.72 ± 0.39.
Under “TTTATTAATAAGAAATGTACACAAAATTATTTCCAA [XGTACX_site5970]” stands 7.75 ± 0.49; under “ATAGAGTCATTCCTCACACACACGCTATATGAATAG [CACACA_site2047]”, 7.95 ± 0.79; under “TAATTAAAATTAAGAAGTACATTTTACTTTTAATGC [XGTACX_site5120]”, 7.61 ± 0.63.
Regarding “AAAAAATACTTATAAAGTACTAATATATATAAGCAG [XGTACX_site743]”, the “gcPBM binding intensity (ln)” value was 7.94 ± 0.41.
As to “AATACAAACCAAAAAGTAAATACATCAACATGATCA [CACACA_negctrl_site140]”, the “gcPBM binding intensity (ln)” value is 7.42 ± 0.48.
As for “GAGAAATTTATACATACACACATATATATATTATAT [CACACA_site4038]”, the “gcPBM binding intensity (ln)” value was 7.78 ± 0.52.
Consider TATCATGTTTTTATGGTGCATGAAATCACACATTGA, for which the “gcPBM binding intensity (ln)” value came out at 9.54 ± 0.33.
In the case of “TATTTTTTCCTTTGTTTTTTAAACTATCTTAACTAA [XGTACX_negctrl_site519]”, the “gcPBM binding intensity (ln)” value worked out at 7.8 ± 0.49.
Under “AAATAAATAAAAAACACACACAAATAAATAAATATA [CACACA_site2249]” stands 7.61 ± 0.55; under “TAAAAAATGATAGAAGTGCATAAAATAATATATATA [GTGCAC_site9904]”, 10.4 ± 0.13; under “ATATAATAAATATATTGTACATATGAATCTACTAAA [XGTACX_site7610]”, 7.61 ± 0.54.
As for “AAAAAATTCCTATATACACACACGCACATATTTATA [CACACA_site6192]”, the “gcPBM binding intensity (ln)” value turned out to be 7.89 ± 0.66.
As to “TTTCTATTTCCTTCACATCTTTTCATCTTTTTTTTT [CACACA_negctrl_site1110]”, the “gcPBM binding intensity (ln)” value stood at 7.94 ± 0.54.
On to “GACTTGAAGAAATAAGTGCAGAGTTTTATTTTAATT [GTGCAC_site9912]”, for which the “gcPBM binding intensity (ln)” value was determined as 8.44 ± 0.34.
Regarding “AAGGAATATATATACATACACACATATATATATATA [CACACA_site1665]”, the “gcPBM binding intensity (ln)” value turned out to be 9.24 ± 0.42.
Under “AGTGGATGAGGACATACACACACACCGAAGTTGATA [CACACA_site9132]” stands 7.63 ± 0.54; under “AAAAAAAAAAAAAAAAAAAAAAATATATATATATAT [XGTACX_negctrl_site33]”, 9.575 ± 0.064.
As to “AAATTTTCATGTGTTGCATGCTGAACTATTTTATCA [TGCATGCA_site856]”, the “gcPBM binding intensity (ln)” value was 7.58 ± 0.81.
With “AATAAAAAGGAAAGGTATATGTGTGCCCTTGTGTTA [TGCATGCA_negctrl_site83]”, the “gcPBM binding intensity (ln)” value turned out to be 8.35 ± 0.47.
Under GAAATTTTTAATGTGGTGCACAGGAAATTTTTTCTT stands 10.66 ± 0.064; under “TATTTCCTTTTTCTTGTTATTCATGAGAAAAAATGA [CACACA_negctrl_site482]”, 7.67 ± 0.52; under “AAAATAATAATAGGCACACATATATATATATATATA [CACACA_site2058]”, 9.36 ± 0.32.
To “AAAAAAAAAAAAACTACACACATACAAATATTTATA [CACACA_site5430]” belongs 7.77 ± 0.34; to TACATACATACAGGAGTGCATATATCACAATTATTA, 10.1 ± 0.16; to “AGTATACTCGGACACACACACACATATATATATATA [CACACA_site5031]”, 9.395 ± 0.078.
Consider “TTATATATATCTAATTGTACAATATTATGTTCATTA [XGTACX_site7479]”, for which the “gcPBM binding intensity (ln)” value was found to be 7.67 ± 0.49.
To “ATATATAATATAATATGTACATAAAATTTTAACATT [XGTACX_site5773]” belongs 7.83 ± 0.33; to “ATTTATTAAATAAAAAGTACAAAATAAGAAAGAAGA [XGTACX_site6935]”, 8.24 ± 0.54; to “AAAAAAACAGTGAATGCACACATTTAAGATCCATAT [CACACA_site3148]”, 9.51 ± 0.085.
As to “TATATTCCCTTAATCACACATAAATAAAAAAAAATA [CACACA_site6094]”, the “gcPBM binding intensity (ln)” value stood at 7.66 ± 0.3.
